In all, about 72,000 compounds went through this assay and about 1,600 (2.2%) were called active. The inconclusive results got no clear call from the source; some entries with a clear call stand among them for comparison. Calls come from the whole dose curve; as a rule, active = well fitted inhibition curve with a large enough effect; inconclusive = small, poorly fitted or top-dose-only effect; inactive = flat fitted curve, though single readings scatter. No potency is given beside an inconclusive call; the fits are too rough.
The compounds below were run against Luciferin 4-monooxygenase (Photinus pyralis) (UniProt P08659) (assay: qHTS Assay for Inhibitors of Firefly Luciferase). Conditions: purified firefly luciferase, luminescence, 8 min; series mostly up to 57.1 µM; activity change, negative = inhibition: at the top concentration.
Summary of the method: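 qHTS concentration-response profiling: light output of P. pyralis luciferase with luciferin and 10 uM ATP, imidazole buffer pH 7.2. Read by luminescence after 8-min room-temperature incubation.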
% is set by controls: 0 for no effect and ±100 for the full control effect; potency is the fitted concentration of half-maximal effect; tags give direction and shape of the fitted curve.
Note: nearly all actives have a fitted effect of over 40% in size.

UniProt P08659, sequence (P08659 whole entry, looked up): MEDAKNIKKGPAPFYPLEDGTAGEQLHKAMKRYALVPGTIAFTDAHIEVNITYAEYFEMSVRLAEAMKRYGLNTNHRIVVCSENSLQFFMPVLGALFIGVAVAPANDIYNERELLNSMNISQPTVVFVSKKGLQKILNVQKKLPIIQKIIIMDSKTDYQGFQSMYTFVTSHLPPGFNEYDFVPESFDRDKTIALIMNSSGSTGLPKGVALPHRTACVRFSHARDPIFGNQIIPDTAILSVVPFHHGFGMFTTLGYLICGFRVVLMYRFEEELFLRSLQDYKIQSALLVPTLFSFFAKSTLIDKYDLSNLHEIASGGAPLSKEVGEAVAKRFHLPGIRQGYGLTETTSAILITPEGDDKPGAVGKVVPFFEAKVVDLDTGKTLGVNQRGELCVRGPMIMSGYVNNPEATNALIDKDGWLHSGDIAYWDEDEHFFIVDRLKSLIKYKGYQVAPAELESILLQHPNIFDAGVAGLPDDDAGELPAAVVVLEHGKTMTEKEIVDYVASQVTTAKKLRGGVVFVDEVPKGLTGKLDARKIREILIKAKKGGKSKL

Compound	activity change, negative = inhibition	Potency
CC(=O)Oc1ccc(N(C(C)=O)S(=O)(=O)c2cccs2)cc1	inactive: -0.932%	
Cn1c(-c2ccc3ccccc3n2)nc2cnccc21		active: 12.6 µM
COc1ccc2cc(C(=O)CCC(=O)O)ccc2c1		inconclusive [inhibitor, single point]
O=C(Nc1ccc(N2CCCCC2)cc1)c1ccc(F)cc1		active: 3.98 µM
O=C(Nc1ccc2c(c1)OCCO2)c1ccc(CN2CCOCC2)cc1		active: 15.8 µM
Cc1cc(Cl)ccc1OCc1nc(-c2ccc(O)cc2)n[nH]1		inconclusive [inhibitor, single point]
COc1cccc2oc(-c3ccc(O)cc3)cc(=O)c12		inconclusive [inhibitor, single point]
CCOC(=O)C1CCN(c2ncnc3c2cnn3-c2ccc(Cl)cc2)CC1	inactive: 1.47% [at 25.5 µM]	
Cc1ccc(S(=O)(=O)N[C@H](CN)C(=O)O)cc1	inactive: 1.76% [at 11.4 µM]	
N#CCc1nc(CSc2nc3ccccc3o2)cs1	inactive: -10.5%	
CC(C)NC[C@H](O)c1ccc(O)c(O)c1		inactive
Cc1ccccc1-c1cc(-c2ccccc2O)n[nH]1		inconclusive [inhibitor, single point]
COc1ccccc1CCC(=O)Nc1nc2ccccc2[nH]1		inconclusive [inhibitor, single point]
Cc1cccn2c(N)c(-c3ccccc3)nc12		inconclusive [inhibitor, single point]
O=C(NCC1CCCO1)c1ccccc1-c1nc(-c2ccc(Cl)cc2)no1 (stereo not given)		inconclusive [inhibitor, single point]
O=c1c(-c2ccccc2)nc2cnc(N3CCNCC3)nc2n1Cc1cccs1	inactive: 1.28% [at 11.4 µM]	
COC(=O)c1[nH]c2c(c1C)C(=O)CCC2	inactive: -1.45%	
CC1(C)CC(=O)C(C=NCCc2ccc(S(N)(=O)=O)cc2)=C(O)C1		inconclusive [inhibitor, full curve]
O=C(Nc1ccc(N2CCCC2)c(Cl)c1)c1ccco1		active: 5.01 µM
Cn1c(-c2ccc(N)cc2)nc2ccccc21		inconclusive [inhibitor, single point]
COc1ccccc1NC(=O)CSc1nnc(-c2ccco2)n1Cc1ccco1		active: 25.1 µM
CCC(=O)Nc1nc2cc(OC)ccc2s1		inconclusive [inhibitor, single point]
CC(C)C12CC[C@@]3(CC[C@H]4[C@@](C)(CCC[C@]4(C)C(=O)O)[C@@H]3C1)[C@@H](CN)C2	inactive: 2.53% [at 11.4 µM]	
O=C(Nc1ccc(OC(F)(F)F)cc1)c1cnc2n(c1=O)CCS2	inactive: -4.24%	
O=C(Nc1cccc(F)c1)c1ccc2c(c1)OCO2		inconclusive [inhibitor, single point]
O=C(CC(SCCO)c1ccc2c(c1)OCO2)c1cccs1 (stereo not given)		inconclusive [inhibitor, single point]
COC(=O)CSc1nc2cc(C)ccc2cc1C#N		inconclusive [inhibitor, single point]

Compound	activity change, negative = inhibition	Potency
c1csc(-c2nc3ccccc3[nH]2)c1		inconclusive [inhibitor, single point]
Fc1ccccc1CSc1nc2ncccc2[nH]1		inconclusive [inhibitor, single point]
N#Cc1cccc(-c2nccc(NCc3ccccc3)n2)c1	inactive: -0.536% [at 2.29 µM]	
Nc1ccccc1N=Nc1c(S(=O)(=O)O)cc2cc(S(=O)(=O)O)cc(O)c2c1O		inconclusive [inhibitor, single point]
CN(C)c1ccc(-c2nccc(NCc3ccccc3)n2)cc1		inconclusive [inhibitor, single point]
Cn1cnc2cc(OC(=O)c3ccccc3)ccc21		active: 15.8 µM
c1ccc([C@@H]2CN3CCSC3=N2)cc1		inactive
CC[C@]1(O)C[C@H]2CN(CCc3c([nH]c4ccccc34)[C@](C(=O)OC)(c3cc4c(cc3OC)N(C=O)[C@H]3[C@@](O)(C(=O)OC)[C@H](OC(C)=O)[C@@]5(CC)C=CCN6CC[C@]43[C@H]65)C2)C1	inactive: -0.117%	
O=C(NCc1cccs1)c1ccc2c(c1)ncn2C1CCCC1		inconclusive [inhibitor, partial curve]
COc1ccc(NC(=O)Nc2nnc(N3CCCCC3C)s2)cc1OC (stereo not given)		active: 15.8 µM
O=C(Nc1ccc(N2CCCCC2)cc1)c1cccnc1		inconclusive [inhibitor, single point]
Cc1cc2nc([C@H](C)C(=O)c3ccc(Cl)cc3)c(=O)[nH]c2cc1C		inconclusive [inhibitor, single point]
COc1ccc(-c2nc(-c3ccncc3)no2)cc1OC		inconclusive [inhibitor, single point]
CC1(C)NC(=O)N(CCCOc2ccc(Br)cc2Cl)C1=O		inconclusive [inhibitor, single point]
Cc1noc(C)c1C(=O)N1CCC2(CC1)CCN(c1ccccn1)CC2	inactive: 1.07% [at 11.4 µM]	
Cn1c(SCC(=O)Nc2ccc(N3CCOCC3)c(Cl)c2)nnc1C(O)c1ccccc1 (stereo not given)		inconclusive [inhibitor, partial curve]
Nc1ccc2oc(-c3ccccc3Cl)nc2c1		active: 3.16 µM
Cc1ccc(C(=O)Nc2cccc(C(=O)NCc3ccco3)c2)cc1		inconclusive [inhibitor, single point]
COCCCNc1ccnc2c(Cl)cccc12		inconclusive [inhibitor, partial curve]
CC(=O)NC1Sc2ccccc2N=C1c1ccccc1 (stereo not given)		inconclusive [inhibitor, single point]
Cc1ccc2nc(NC(=O)CCNS(=O)(=O)c3cccs3)sc2c1		inconclusive [inhibitor, partial curve]
CCCNC(=O)c1noc2c1CCc1ccccc1-2		inconclusive [inhibitor, partial curve]
CC(C)=C[C@H]1[C@@H](COC(=O)c2ccccc2Cl)C1(C)C	inactive: -0.629% [at 11.4 µM]	
COC(=O)C1=C(CN2CCCc3ccccc32)NC(=O)NC1c1ccc(F)cc1 (stereo not given)		inconclusive [inhibitor, single point]
c1cc2c3c(c1)c1c(n3CCNC2)CCCC1		inconclusive [inhibitor, partial curve]
CCCCNc1ncnc2c1cnn2-c1ccccc1		active: 12.6 µM
Cc1ccc(N=c2oc3cc(O)ccc3cc2C(N)=O)cc1		active: 12.6 µM

Compound	activity change, negative = inhibition	Potency
CC(C)c1ccc2oc(-c3cc(N)ccc3O)nc2c1		active: 0.501 µM
Cc1ccc(NC2=CC(=O)CC(c3ccco3)C2)c(N)c1 (stereo not given)	inactive: 1.91%	
COc1ccc(C)cc1NC(=O)c1cc2ccccc2o1		inconclusive [inhibitor, single point]
Cc1[nH]c2ccc(C(=O)OCCN(C)C)cc2c1C		inconclusive [inhibitor, single point]
Nn1cnnc1SCC(=O)Nc1ccc(C2CCCCC2)cc1		inconclusive [inhibitor, partial curve]
Cn1cccc1Cc1nnc(SCC(=O)NC2CCCC2)n1CCc1ccccc1	inactive: 1.63%	
CC(C)COc1ccc(-c2nnc(-c3ccco3)o2)cc1		active: 15.8 µM
N#CC1=C(N)C(C#N)(C#N)C2(CCC3(CC2)OCCO3)C2CC3(CC=C12)OCCO3 (stereo not given)	inactive: 0.676%	
Cc1cccc(C(=O)Nc2ccc(CC(=O)O)cc2)c1		inconclusive [inhibitor, single point]
COc1nc(-c2ccccc2)ccc1-c1noc(-c2ccccc2)n1		inconclusive [inhibitor, partial curve]
COc1ccc2cc(C#N)c(SCC(=O)N3CCCC3)nc2c1		inconclusive [inhibitor, full curve]
CC(=O)n1c2ccccc2c2nc(NC(C)C)sc21		inconclusive [inhibitor, single point]
CCN1CCC[C@H]1CNC(=O)c1c(O)c(Cl)cc(Cl)c1OC		active: 12.6 µM
COC(=O)c1oc2ccc(OC)cc2c1N		inconclusive [inhibitor, single point]
CCn1ccc(C(=O)Oc2ccc(C(C)C)cc2)n1		active: 12.6 µM
COc1cccc(CNc2ccc(N3CCCCC3)cc2)c1OC		inconclusive [inhibitor, single point]
O=C(c1cc2nc(-c3ccco3)cc(C(F)(F)F)n2n1)N1CCN(c2ccccc2)CC1	inactive: 1.33%	
N#Cc1cc2ccccc2nc1SCc1ccccn1		inconclusive [inhibitor, single point]
Cc1ccc(NC(=O)CSCC(N)=O)cc1C	inactive: -26.6%	
O=C(CCN1C(=O)COc2ccccc21)NCc1cccnc1	inactive: -0.446%	
N.N.O=C(O)C1(C(=O)O)CCC1.[Pt]	inactive: -9.81%	
Nn1c(SCC(=O)NC2CCCc3ccccc32)nnc1-c1cccs1 (stereo not given)	inactive: 2.09%	
CCN=c1scc(C)n1/N=C/c1ccsc1		inconclusive [inhibitor, single point]
COc1ccccc1OC[C@H](O)CN1CCN(CC(=O)Nc2c(C)cccc2C)CC1	inactive: 0.0748%	
COc1cc(C(=O)Nc2cc(-c3nc4cc(C)ccc4o3)ccc2C)cc(OC)c1OC		active: 1 µM
CCOC(=O)N1CCN(C(=O)c2cc(-c3ccc(OCC)cc3)nc3ccccc23)CC1		active: 0.794 µM
